In EP0452680A1 (priority 1990, dated 1991):

Columns and labels:
[1] = test system: Herpes simplex Virus 1; test: microbe, parasite or virus in culture; details: Human alphaherpesvirus 1, read-out: MHK (Minimale Hemmkonzentration)
[2] = test system: Herpes simplex Virus 2; test: microbe, parasite or virus in culture; details: Human alphaherpesvirus 2, read-out: MHK (Minimale Hemmkonzentration)
[3] = test system: Vaccinia Virus; test: microbe, parasite or virus in culture; details: Orthopoxvirus vaccinia, read-out: MHK (Minimale Hemmkonzentration)
[4] = test system: Vesikular Stomatitis Virus; test: microbe, parasite or virus in culture; details: Vesicular stomatitis virus, read-out: MHK (Minimale Hemmkonzentration)
[5] = test system: Herpes simplex Virus 1; test: In vivo HSV-1 infection of NMRI mice, survival; set-up: species or system NMRI-Mäuse; details: first dose 3 h after infection, twice daily, observation two weeks
[6] = intraperitoneal, 9 x 10 µmol/kg
[7] = intraperitoneal, 9 x 30 µmol/kg
[8] = intraperitoneal, 9 x 100 µmol/kg

Nc1nc2ncn(COC(CO)CO)c2c(=O)[nH]1 [reference compound]
MIC [1]: > 400 µg/mL | MIC [2]: > 400 µg/mL | MIC [3]: > 400 µg/mL | MIC [4]: > 400 µg/mL | mittlere Überlebenszeit [5, 6]: 10.0 +/- 1.4 Tage | Überlebende / gesamt [5, 6]: 3 / 5 | mittlere Überlebenszeit [5, 7]: 10.0 +/- 0.0 Tage | Überlebende / gesamt [5, 7]: 4 / 5 | mittlere Überlebenszeit [5, 8]: 9.3 +/- 2.1 Tage | Überlebende / gesamt [5, 8]: 2 / 5 | mittlere Überlebenszeit ([5]; oral, 9 x 10 µmol/kg): 6.5 +/- 2.1 Tage | Überlebende / gesamt ([5]; oral, 9 x 10 µmol/kg): 3 / 5 | mittlere Überlebenszeit ([5]; oral, 9 x 30 µmol/kg): 8.5 +/- 0.7 Tage | Überlebende / gesamt ([5]; oral, 9 x 30 µmol/kg): 3 / 5 | mittlere Überlebenszeit ([5]; oral, 9 x 100 µmol/kg): 9.0 +/- 1.4 Tage | Überlebende / gesamt ([5]; oral, 9 x 100 µmol/kg): 3 / 5

Nc1ncc2c(ncn2COC(CO)CO)n1 [Beispiel 6.12., 2-Amino-7-(1,3-dihydroxy-2-propoxymethyl)-purin]
MIC [1]: 1.65 µg/mL (≈ 6.9 µM) | MIC [2]: 1.65 µg/mL (≈ 6.9 µM) | MIC [3]: 4.94 µg/mL (≈ 20.6 µM) | MIC [4]: > 400 µg/mL | Überlebende / gesamt [5, 6]: 5 / 5 | Überlebende / gesamt [5, 7]: 5 / 5 | Überlebende / gesamt [5, 8]: 5 / 5 | mittlere Überlebenszeit ([5]; oral, 9 x 10 µmol/kg): 8.3 +/- 1.5 Tage | Überlebende / gesamt ([5]; oral, 9 x 10 µmol/kg): 2 / 5 | Überlebende / gesamt ([5]; oral, 9 x 30 µmol/kg): 5 / 5 | Überlebende / gesamt ([5]; oral, 9 x 100 µmol/kg): 5 / 5

CC(C)OCC(CO)OCn1cnc2nc(N)ncc21 (stereo not drawn) [Beispiel 6.10., 2-Amino-7-(1-hydroxy-3-isopropoxy-2-propoxymethyl)-purin]
MIC [1]: > 400 µg/mL | MIC [2]: > 400 µg/mL | MIC [3]: > 400 µg/mL | MIC [4]: > 400 µg/mL | mittlere Überlebenszeit [5, 6]: 10.0 +/- 1.4 Tage | Überlebende / gesamt [5, 6]: 3 / 5 | Überlebende / gesamt [5, 7]: 5 / 5 | Überlebende / gesamt [5, 8]: 5 / 5 | mittlere Überlebenszeit ([5]; oral, 9 x 10 µmol/kg): 10.0 +/- 0.0 Tage | Überlebende / gesamt ([5]; oral, 9 x 10 µmol/kg): 4 / 5 | Überlebende / gesamt ([5]; oral, 9 x 30 µmol/kg): 5 / 5 | Überlebende / gesamt ([5]; oral, 9 x 100 µmol/kg): 5 / 5

CC(C)OCC(COC(C)C)OCn1cnc2nc(N)ncc21 [Beispiel 6.7., 2-Amino-7-[1,3-bis(isopropoxy)-2-propoxymethyl]purin]
MIC [1]: > 400 µg/mL | MIC [2]: > 400 µg/mL | MIC [3]: > 400 µg/mL | MIC [4]: > 400 µg/mL | mittlere Überlebenszeit [5, 6]: 7.0 +/- 0.0 Tage | Überlebende / gesamt [5, 6]: 4 / 5 | Überlebende / gesamt [5, 7]: 5 / 5 | Überlebende / gesamt [5, 8]: 5 / 5 | Überlebende / gesamt ([5]; oral, 9 x 10 µmol/kg): 5 / 5 | Überlebende / gesamt ([5]; oral, 9 x 30 µmol/kg): 5 / 5 | Überlebende / gesamt ([5]; oral, 9 x 100 µmol/kg): 5 / 5

Nc1nc2c(ncn2COC(CO)CO)c(=O)[nH]1 [reference compound]
MIC [1]: 4.94 µg/mL (≈ 19.4 µM) | MIC [2]: 1.65 µg/mL (≈ 6.46 µM) | MIC [3]: > 400 µg/mL | MIC [4]: 133 µg/mL (≈ 522 µM)

In brackets after ≈: the same amount, converted by molar mass.
